Like-named read-outs stand apart in the source and are kept apart here.
How the values were obtained:
[1] = system: rice blast fungi (Magnaporthe grisea); type: in vivo; conditions: for Test A control value class (rice blast): control value=100{1-(n/3)}; for Test A control value: rice blast
[2] = system: tomato late blight fungi (Phytophthora infestans); type: in vivo; conditions: for Test F control value class (tomato late blight): control value=100{1-(n/3)}; for Test F control value: tomato late blight
[3] = system: cucumber anthracnose fungi (Colletotrichum orbiculare); assay: Test Example H: cucumber anthracnose, spray treatment of cucumber plants; conditions: for Test H control value class (cucumber anthracnose): 2.5 ml/pot, cucumber Sagami Hanjiro, 6 to 10 days from inoculation; for Test H control value: cucumber anthracnose, 6 to 10 days after inoculation
[4] = spray treatment of tomato plants

Row | Structure (SMILES) | Test A control value ([1]; spray treatment) | Test F control value ([2]; spray treatment) | Test H control value ([3]; 250 ppm spray) | other results
1 | Cc1ccc(F)cc1-n1cc(Br)c(=O)c(Br)c1-c1c(F)cc(F)cc1F [Compound 178] |  |  |  | Test A control value class (rice blast) ([1]; spray treatment of rice plants): H (H shows the control value of more than 50%); Test F control value class (tomato late blight) [2, 4]: L (L shows the control value of 50% or less); Test H control value class (cucumber anthracnose) ([3]; 250 ppm spray): H (H shows the control value of more than 50%)
2 | Cc1cn(-c2ccccc2C(F)(F)F)c(-c2c(F)cccc2F)c(C)c1=O [Compound 370] |  |  |  | Test A control value ([1]; spray treatment of rice plants): L (L shows the control value of 50% or less); Test F control value [2, 4]: L (L shows the control value of 50% or less); Test H control value ([3]; 250 ppm spray (2.5 ml/pot)): H (H shows the control value of more than 50%)
3 | O=c1c(Br)cn(-c2ccccc2)c(-c2ccccc2C(F)(F)F)c1Cl [Compound 600] | H (H shows the control value of more than 50%) | L (L shows the control value of 50% or less) | H (H shows the control value of more than 50%) | 
4 | Cc1ccccc1-n1cc(Br)c(=O)c(Cl)c1-c1ccc(F)cc1 [Compound 235] |  |  |  | Test A control value ([1]; spray treatment of rice plants): H (H shows the control value of more than 50%); Test F control value [2, 4]: L (L shows the control value of 50% or less); Test H control value ([3]; 250 ppm spray (2.5 ml/pot)): H (H shows the control value of more than 50%)
5 | CCc1c(-c2ccccc2)n(-c2cccc(OC)c2C)cc(C)c1=O [Compound 563] | H (H shows the control value of more than 50%) | L (L shows the control value of 50% or less) | H (H shows the control value of more than 50%) | 
6 | Cc1cccc(-n2cc(Cl)c(=O)c(Cl)c2-c2c(F)cc(F)cc2F)c1C [Compound 173] |  |  |  | Test A control value class (rice blast) ([1]; spray treatment of rice plants): H (H shows the control value of more than 50%); Test F control value class (tomato late blight) [2, 4]: L (L shows the control value of 50% or less); Test H control value class (cucumber anthracnose) ([3]; 250 ppm spray): H (H shows the control value of more than 50%)
7 | CCCCn1cc(Cl)c(=O)c(Br)c1-c1c(F)cc(F)cc1F [Compound 222] |  |  |  | Test A control value ([1]; spray treatment of rice plants): H (H shows the control value of more than 50%); Test F control value [2, 4]: L (L shows the control value of 50% or less); Test H control value ([3]; 250 ppm spray (2.5 ml/pot)): H (H shows the control value of more than 50%)
8 | COc1ccccc1-c1c(Cl)c(=O)c(Br)cn1-c1ccccc1 [Compound 599] | L (L shows the control value of 50% or less) | L (L shows the control value of 50% or less) | L (L shows the control value of 50% or less) | 
9 | CSc1ccc(-c2c(C)c(=O)c(C)cn2-c2ccccc2C)cc1 [Compound 254] |  |  |  | Test A control value ([1]; spray treatment of rice plants): L (L shows the control value of 50% or less); Test F control value [2, 4]: L (L shows the control value of 50% or less); Test H control value ([3]; 250 ppm spray (2.5 ml/pot)): L (L shows the control value of 50% or less)
10 | CCc1c(-c2c(F)cc(F)cc2F)n(-c2cccc(Br)c2C)cc(Br)c1=O [Compound 548] | H (H shows the control value of more than 50%) | L (L shows the control value of 50% or less) | H (H shows the control value of more than 50%) | 
11 | O=c1c(Br)cn(-c2ccccc2Cl)c(-c2c(F)cccc2F)c1Br [Compound 55] |  |  |  | Test A control value class (rice blast) ([1]; spray treatment of rice plants): H (H shows the control value of more than 50%); Test F control value class (tomato late blight) [2, 4]: L (L shows the control value of 50% or less); Test H control value class (cucumber anthracnose) ([3]; 250 ppm spray): H (H shows the control value of more than 50%)
12 | CCc1c(-c2ccccc2)n(-c2cc(Cl)ccc2C)cc(Br)c1=O [Compound 553] | L (L shows the control value of 50% or less) | L (L shows the control value of 50% or less) | L (L shows the control value of 50% or less) | 
13 | COc1ccc(C)c(-n2cc(C)c(=O)c(C)c2-c2c(F)cccc2F)c1 [Compound 383] | H (H shows the control value of more than 50%) | L (L shows the control value of 50% or less) | H (H shows the control value of more than 50%) | 
14 | Cc1ccccc1-n1cc(C)c(=O)c(C)c1-c1ccccc1Cl [Compound 354] |  |  |  | Test A control value ([1]; spray treatment of rice plants): H (H shows the control value of more than 50%); Test F control value [2, 4]: L (L shows the control value of 50% or less); Test H control value ([3]; 250 ppm spray (2.5 ml/pot)): H (H shows the control value of more than 50%)
15 | COc1cc(F)c(-c2c(Cl)c(=O)c(Cl)cn2Cc2ccccc2)c(F)c1 [Compound 58] |  |  |  | Test A control value class (rice blast) ([1]; spray treatment of rice plants): H (H shows the control value of more than 50%); Test F control value class (tomato late blight) [2, 4]: H (H shows the control value of more than 50%); Test H control value class (cucumber anthracnose) ([3]; 250 ppm spray): H (H shows the control value of more than 50%)
16 | CCOc1ccc(C)c(-n2cc(Br)c(=O)c(Cl)c2-c2c(F)cccc2F)c1 [Compound 433] | L (L shows the control value of 50% or less) | L (L shows the control value of 50% or less) | H (H shows the control value of more than 50%) | 

Row | Structure (SMILES) | Test A control value ([1]; spray treatment) | Test F control value ([2]; spray treatment) | Test H control value ([3]; 250 ppm spray) | other results
17 | CCc1c(-c2c(F)cc(F)cc2F)n(-c2cc(C)ccc2C)cc(Br)c1=O [Compound 519] | H (H shows the control value of more than 50%) | L (L shows the control value of 50% or less) | H (H shows the control value of more than 50%) | 
18 | CCc1c(-c2c(F)cccc2F)n(-c2cccc(F)c2C)cc(C)c1=O [Compound 552] | H (H shows the control value of more than 50%) | L (L shows the control value of 50% or less) | H (H shows the control value of more than 50%) | 
19 | CCc1c(-c2c(F)cc(F)cc2F)n(-c2cc(Br)ccc2C)cc(Br)c1=O [Compound 529] | H (H shows the control value of more than 50%) | L (L shows the control value of 50% or less) | H (H shows the control value of more than 50%) | 
20 | Cc1ccc(C#N)cc1-n1cc(Br)c(=O)c(Br)c1-c1c(F)cc(F)cc1F [Compound 337] |  |  |  | Test A control value ([1]; spray treatment of rice plants): H (H shows the control value of more than 50%); Test F control value [2, 4]: L (L shows the control value of 50% or less); Test H control value ([3]; 250 ppm spray (2.5 ml/pot)): L (L shows the control value of 50% or less)
21 | CCCc1c(-c2c(F)cc(F)cc2F)n(-c2ccccc2C)cc(Br)c1=O [Compound 376] | L (L shows the control value of 50% or less) | L (L shows the control value of 50% or less) | L (L shows the control value of 50% or less) | 
22 | Cc1ccc(Br)cc1-n1cc(C)c(=O)c(C)c1-c1ccccc1 [Compound 518] | H (H shows the control value of more than 50%) | L (L shows the control value of 50% or less) | H (H shows the control value of more than 50%) | 
23 | O=c1c(Cl)cn(-c2ccccc2Br)c(-c2c(F)cccc2F)c1Cl [Compound 92] |  |  |  | Test A control value class (rice blast) ([1]; spray treatment of rice plants): H (H shows the control value of more than 50%); Test F control value class (tomato late blight) [2, 4]: L (L shows the control value of 50% or less); Test H control value class (cucumber anthracnose) ([3]; 250 ppm spray): H (H shows the control value of more than 50%)
24 | CCc1c(-c2ccccc2)n(-c2ccccc2)cc(Br)c1=O [Compound 557] | L (L shows the control value of 50% or less) | L (L shows the control value of 50% or less) | H (H shows the control value of more than 50%) | 
25 | O=c1c(Br)cn(-c2ccccc2C(F)(F)F)c(-c2c(F)cccc2F)c1Br [Compound 372] |  |  |  | Test A control value ([1]; spray treatment of rice plants): H (H shows the control value of more than 50%); Test F control value [2, 4]: L (L shows the control value of 50% or less); Test H control value ([3]; 250 ppm spray (2.5 ml/pot)): H (H shows the control value of more than 50%)
26 | Cc1cn(-c2cc(F)ccc2Cl)c(-c2ccccc2)c(C)c1=O [Compound 416] | L (L shows the control value of 50% or less) | L (L shows the control value of 50% or less) | H (H shows the control value of more than 50%) | 
27 | Cc1cccc(C)c1-n1cc(Cl)c(=O)c(Br)c1-c1ccc(F)cc1 [Compound 344] |  |  |  | Test A control value ([1]; spray treatment of rice plants): L (L shows the control value of 50% or less); Test F control value [2, 4]: L (L shows the control value of 50% or less); Test H control value ([3]; 250 ppm spray (2.5 ml/pot)): H (H shows the control value of more than 50%)
28 | CCc1c(-c2c(F)cccc2F)n(-c2ccccc2)cc(Br)c1=O [Compound 531] | H (H shows the control value of more than 50%) | L (L shows the control value of 50% or less) | H (H shows the control value of more than 50%) | 
29 | CCc1c(-c2c(F)cc(F)cc2F)n(-c2cccc(OC)c2C)cc(C)c1=O [Compound 514] | H (H shows the control value of more than 50%) | L (L shows the control value of 50% or less) | H (H shows the control value of more than 50%) | 
30 | O=c1c(Br)cn(-c2cc(F)ccc2Cl)c(-c2c(F)cccc2F)c1Br [Compound 106] |  |  |  | Test A control value class (rice blast) ([1]; spray treatment of rice plants): H (H shows the control value of more than 50%); Test F control value class (tomato late blight) [2, 4]: L (L shows the control value of 50% or less); Test H control value class (cucumber anthracnose) ([3]; 250 ppm spray): H (H shows the control value of more than 50%)
31 | CCc1c(-c2c(F)cccc2F)n(-c2ccccc2Cl)cc(C)c1=O [Compound 512] | H (H shows the control value of more than 50%) | L (L shows the control value of 50% or less) | H (H shows the control value of more than 50%) | 
32 | Cc1ccc(Cl)cc1-n1cc(C)c(=O)c(C)c1-c1ccccc1 [Compound 517] | L (L shows the control value of 50% or less) | H (H shows the control value of more than 50%) | L (L shows the control value of 50% or less) | 
